Experimental data: PubChem BioAssay AID1508623 (National Center for Advancing Translational Sciences (NCATS), 2021)
Hit rate of the full screen: of about 48,000 compounds, about 450 (0.94%) were called active. About 19% were inconclusive and are not listed. Calls come from the whole dose curve; as a rule, active = well fitted inhibition curve with a large enough effect; inconclusive = small, poorly fitted or top-dose-only effect; inactive = no such curve, though single readings can be large or run the other way. The list shows a part of the results.

Test: Primary qHTS for Identification of Small Molecule Inhibitors of Huntingtin Promoter Activity; note: nearly all actives have a fitted effect of over 50% in size
Details: HEK293 HTT promoter firefly luciferase reporter (activity 0% = vehicle and -100% = no light), 24 h; series mostly up to 57.5 µM; activity change, negative = inhibition: at the top concentration
How it was run: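 Quantitative HTS used concentration series of up to 57.5 uM final on HEK293 luciferase reporter cells, 24 h at 37 degrees C. Readout was Dual-Glo firefly luminescence.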

Activity change, negative = inhibition, inactive:
Cc1ccccc1Cn1c2ccccc2c2cnn(CC(=O)NCc3ccccn3)c(=O)c21 -1.91%
CCSc1ccccc1C(=O)Nc1ccc(-c2nc3ccccc3s2)c(O)c1 29.9%
O=C(NCCc1ccccc1)C1CCC(CNS(=O)(=O)c2ccc(Cl)cc2)CC1 (stereo not given) 9.84%
CCOC(=O)c1cccc(NC(=O)C2Cc3ccccc3N2C(=O)c2ccccc2)c1 (stereo not given) -1.02%
O=C(OCc1ccccc1)c1ccccc1 25.5%
CCOc1ccc(C(=O)NC2CC(=O)N(c3ccc(C)cc3)C2)cc1OCC (stereo not given) -6.17%
Cc1ccc(-c2nc(NC(=O)CSc3nc(C)nc4sc5c(c34)CCCC5)ns2)cc1 -9.22%
Cc1cccc(-n2ncc3c(Nc4ccc(C)c(Cl)c4)ncnc32)c1 11.9%
COc1ccc(NC(=O)c2c(-c3ccccc3)c(-c3ccccc3)nn(C)c2=O)cc1OC -6.85%
Cc1ccc(C)c(Cn2c(=O)n(C(C)C)c(=O)c3oc4ccccc4c32)c1 4.59%
Cc1ccccc1CNC(=O)CN1C(=O)C2CCCCN2c2ccc(C(=O)N3CCCC3)cc21 (stereo not given) -8.44%
CCc1nn(CC(=O)N2CCCCC2)c(=O)c2cc3sc(C)cc3n12 -7.26%
Cc1ccccc1NC(=O)CCS(=O)(=O)c1cc(Br)cc2c1N(C(=O)C1CC1)CC2 -12.4%
COc1ccc(-c2cn3cccnc3n2)cc1NC(=O)Nc1ccc(Cl)cc1 36.9%
Cc1ccc(C(=O)c2oc3ccccc3c2NC(=O)COc2ccc(C(C)C)cc2)cc1 7.29%
O=C(Nc1ccc(S(=O)(=O)Nc2ncccn2)cc1)c1cc(=O)c2ccccc2o1 -12.5%
CCN(CC)C(=O)Cn1c(=O)cc(C)c2c(C)nn(-c3ccc(C)cc3)c21 0%
CC(C)c1nn2c(=O)cc(COC(=O)c3ccc(NC(=O)C4CCCCC4)cc3)nc2s1 -12.6%
Cc1ccc(CSc2ncc(Cl)c(C(=O)NCc3ccccc3)n2)cc1 1.33%
COc1ccc2[nH]c3c(c2c1)CCN(C(=O)c1cccc(Cl)c1)C3c1ccc(F)cc1 (stereo not given) -23.6%
Cc1nc2sccn2c(=O)c1S(=O)(=O)Nc1cc(Cl)ccc1O -10.3%
CCOC(=O)c1cc(-c2ccc(F)cc2)n(CC(=O)NC2CCCCCC2)c1C -31.5%
Cc1ccc(CN(Cc2ccco2)C(=O)c2ccc(OCC(C)C)cc2)cc1 -21.9%
COc1ccc(NC(=O)c2c(NC(=O)COc3ccccc3)sc3c2CCC(C(C)(C)C)C3)cc1 (stereo not given) -11.7%
CCCCN1CCc2nc(Nc3ccc(OC)cc3OC)ncc2C1 -17.1%
Cc1ccc(C)c(N2CCN(C(=O)c3cc4c(=O)n(Cc5ccccc5)ccc4nc3C)CC2)c1 -29.7%
Cc1ccc2c(c1)N(C(=O)N1CCC(C(=O)NCCc3ccc(Cl)cc3)CC1)CC(C)O2 (stereo not given) -11%
CCOc1cccc2c1N[C@@H](c1ccc(C(=O)O)cc1)[C@H]1CC=C[C@@H]21 7.17%
Cc1ccc(-n2nc(C)c3c(C)c(CCC(=O)NCc4ccccc4Cl)c(C)nc32)cc1C -7.75%
CCc1ccc(NC(=O)CN2C(=O)C(c3ccc(C)cc3)=NC23CCCCC3)cc1 -28.9%
Cc1cccc(Cn2cccc2CNS(=O)(=O)c2ccccc2F)c1 -8.49%
CCc1ccc(CNC(=O)Cn2nc(C)n3c(cc4cc(C)ccc43)c2=O)cc1 -3.83%
COc1ccc(NC(=O)C(Cc2ccccc2)NS(=O)(=O)c2ccc3c(c2)CCC(=O)N3)c(OC)c1 (stereo not given) -10.2%
CCCCOc1ccc(C2=NC(c3ccncc3)=Nc3ccc(OCC)cc3N2)cc1 -2.92%
CCOc1ccccc1CNC(=O)C1CCN(c2nnc(-n3c(C)ccc3C)s2)CC1 -15%
O=C(Cn1c(=O)n(CC2CCC(C(=O)NCCc3ccccc3)CC2)c(=O)c2ccccc21)Nc1ccccc1 (stereo not given) -2.69%
Cc1ccc2c(Cl)cc(Cl)c(O)c2n1 8.28%
Cc1cc(C)n2nc(CNS(=O)(=O)c3ccc(C)c(C)c3)nc2n1 5.06%
CC(C)OCCCn1c(SCC(=O)c2ccccc2)nc2c(sc3ccccc32)c1=O -21.6%
COc1ccc(NC(=O)CSc2nc3nc(C)c(Cc4ccccc4)c(C)n3n2)cc1OC -25.5%
CCN(CC)CCOC(=O)c1ccc(NC(=O)Cn2ncc3c2-c2cc(C)ccc2OC3)cc1 -23.9%
CCOc1ccc(C2CC(c3c(O)n(C4CCCCC4)c(=O)[nH]c3=O)=Nc3ccccc3S2)cc1 (stereo not given) -52.4%
O=C(Nc1sc2c(c1C(=O)NCc1cccnc1)CCCC2)c1cc(=O)c2ccccc2o1 -7.29%
Cc1ccc2nc(COc3ccccc3NC(=O)C(C)(C)C)cc(=O)n2c1 -7.3%
O=C(CSc1nnc2ccc3ccccc3n12)Nc1ccccc1Cl 46.5%
O=C(Cc1ccc(F)cc1)NCc1ccc2c(c1)CCN2C(=O)c1ccc(F)cc1 -19.7%
COc1cccc2c1cc1c(=O)n(CC(=O)NCc3ccc(C)o3)nc(C)n12 -2.9%
O=C(COc1ccc(Cl)cc1)Nc1ccc2nc(SCC(=O)N3CCCC3)sc2c1 -25.9%
Cc1nn(C(=O)c2cccc(Cl)c2)c(C)c1S(=O)(=O)N1CCOCC1 -19%
CCn1c(=O)cc(SCC(=O)NCc2ccc(OC)cc2OC)c2ccccc21 -12.3%
COc1ccc(CCNC(=O)C(=O)NCC(c2ccco2)S(=O)(=O)c2cccs2)cc1OC (stereo not given) -16.9%
CCC(=O)N1CCc2cc(S(=O)(=O)NC(CC(C)C)C(=O)NCCc3ccccc3)ccc21 (stereo not given) -22.1%
O=C(c1nc(-c2ccc(Cl)cc2)n2c1CCCCC2)N1CCN(c2ccccc2)CC1 -75.9% [at 11.5 µM]
O=C(COc1ccccc1-c1nc(-c2ccccc2)no1)Nc1cccc([N+](=O)[O-])c1 -10.4%
OC(CCN1CCCCC1)(c1ccccc1)C1CCCCC1 (stereo not given) -14.8%
COc1ccc(NC(=O)c2cc3c([nH]c2=O)CC(c2ccccc2)CC3=O)cc1 (stereo not given) 4.33%
COc1ccc(NC(=O)Cn2c(=O)n(-c3ccc(CC(=O)NCC4CCCO4)cc3)c(=O)c3ccccc32)c(OC)c1 (stereo not given) -7.3%
CCCOc1ccc(OC(=O)c2c(-c3ccccc3Cl)noc2C)cc1 -9.9%
COc1ccc(NC(=O)c2ccc3c(c2)c(C)c(C)n3Cc2ccc(F)cc2)c(OC)c1 -26.2%
COc1ccc(C2=Nn3c(nc4sc(C(=O)Nc5cccc(C)c5)c(C)c4c3=O)SC2)cc1 -21.8%
COc1ccc(-c2nn3c(-c4ccc(C)cc4)nnc3c3ccccc23)cc1 -0.664%
COc1cccc(CN2C(=O)c3ccccc3Sc3ccc(C(=O)NCCc4ccc(Cl)cc4)cc32)c1 -23.6%
CCc1ccc(OCC(=O)N(Cc2ccco2)Cc2ccco2)cc1 -11.8%
O=C(C1CCN(c2nc3ccccc3[nH]2)CC1)N1CCN(c2ccccc2)CC1 -7.06%
Cc1cc(C)cc(OCc2cc(=O)n3cc(C)sc3n2)c1 -1.8%
COc1nc(-c2ccc3c(c2)OCO3)n(-c2ccc(NC(=O)CSc3ccccc3)cc2)n1 2.59%
Cc1cccc(NCc2nnc3n2CCCCC3)c1C -7.14%
CCCN1CCN(CCCNC(=O)c2ccc3c(c2)sc2nc(-c4ccc(C)cc4)cn23)CC1 -29.9%
CN(C(=O)c1ccc2c(c1)N(Cc1ccccc1F)C(=O)c1ccccc1S2)C1CCCCC1 2.48%
CCOC(=O)c1c(C)n(-c2ccccc2)c2ccc(OC(=O)c3ccc(OCC)c(OCC)c3)cc12 -20.2%
Cc1cccc(-c2noc(-c3ccc(NCC4CCCO4)c([N+](=O)[O-])c3)n2)c1 (stereo not given) 14.6%
O=C(Nc1c(C(=O)N2CCC(N3CCCCC3)CC2)oc2ccccc12)c1c(F)cccc1F -9.12%
CN(C)S(=O)(=O)c1ccc2c(c1)N(CC(=O)N1CCCCC1)CCS2 -7.17%
Cc1ccc(-c2nnc(Nc3ccc(Cl)cc3)c3ccccc23)cc1S(=O)(=O)N1CCOCC1 -27.9%
Cn1cc(S(=O)(=O)c2ccccc2)c(=O)c2cc(F)c(N3CCN(c4ccc(F)cc4)CC3)cc21 -6.94%
CCOc1ccc(CCNC(=O)C(C)n2nc(C)n3c(cc4occc43)c2=O)cc1OCC (stereo not given) -19.9%
Cc1ccc(Cl)cc1N1CCN(C(=O)c2cn(C)c3ccc(S(=O)(=O)N(C)C4CCCCC4)cc3c2=O)CC1 -2.32%
CC(=O)Nc1ccc(NC(=O)C(Cc2ccccc2)N2Cc3ccccc3C2=O)cc1 (stereo not given) -13.5%
Cc1cccc(N2CCN(C(=O)c3c(C)oc4nc(C)nc(N5CCCC5)c34)CC2C)c1 (stereo not given) -22.1%
Cc1ccc(NC(=O)Cn2c(=O)n(CCC(=O)NCCc3ccccc3)c(=O)c3ccccc32)cc1 1.83%
O=C(Cn1cnc(S(=O)(=O)N2CCCC2)c1)Nc1ccccc1 -17.9%
Cc1ccc(-n2ncc3c(Nc4cccc(C)c4)ncnc32)cc1 66.6%
COc1cccc(-n2c(SCC(=O)N3CCCCC3)nc3c([nH]c4ccccc43)c2=O)c1 -8.53%
COc1ccc(NC(=O)c2c(N)c(C(=O)c3ccc(C)cc3)n3ccccc23)cc1OC -6.78%
Cc1cc(C)c2c(-n3cccc3)c(C(=O)NCCCN3CCCCC3)sc2n1 -4.27%
Cc1ccc(C)c(NC(=O)C2CCN(c3nn4c(=O)cc(C)nc4s3)CC2)c1 -16.4%
CCN1CCN(Cc2nc3cc(NC(=O)c4ccccc4[N+](=O)[O-])ccc3n2CC)CC1 -10.2%
Cc1ccccc1OCCSc1nc(C)c(Cc2ccccc2)c(=O)[nH]1 -22.3%
COc1ccc(-c2nn(C)c3sc(C(=O)N4CCN(c5ccccc5F)CC4)cc23)cc1OC -11%
COc1ccccc1-c1cc(NC(=O)COc2ccccc2Cl)n(-c2ccccc2)n1 -3.29%
Cc1ccc(-c2nc3sccn3c2Nc2ccccc2C)cc1 -12.6%
COc1cccc(CNC(=O)CN2C(=O)CSc3ccc(S(=O)(=O)N(C)C)cc32)c1 2.35%
CC1CCN(C(=O)c2cnn(-c3ccc(Cl)cc3)c2C2CCN(C(=O)OC(C)(C)C)CC2)CC1 -5.36%
CC(C)(C)C1CCc2c(sc(NC(=O)c3cccc(Cl)c3)c2C(N)=O)C1 (stereo not given) -22.2%
CSCCC(NS(=O)(=O)c1ccc2c(c1)oc(=O)n2C)C(=O)N1CCN(c2cc(Cl)ccc2C)CC1 (stereo not given) -25.8%
